# From PubChem BioAssay (NCATS)
# Values joined by “and” are separate entries in the source; they are usually repeats but may differ in a detail not shown here. Equal values may be shown once. This list was built around the results that the source calls inconclusive (neither active nor inactive); the mix of calls is not that of the screen. For some assays here: Potencies beside an inconclusive call are fits to weak or partial responses and may not hold up. Some structures have more than one record in an assay (separate samples or runs), and their calls can disagree. Active and inactive are the calls of the source. Calls follow the shape of the dose curve; as a rule, active = well fitted curve in the direction sought with a large enough effect; inconclusive = small, poorly fitted or top-dose-only effect, or another doubt; inactive = no such curve, though single readings can be large; an effect the other way counts as inactive or inconclusive.
# Experiments:
# [1] = Cell Proliferation Assay against the TMD8 Cell Line (Caspase readout at 8 hrs) (AID 651713); details: TMD8 lymphoma cells, caspase activation luminescence; caspase activation: at 46.1 µM (top of the series); also: potency is read from the fitted curve at half-maximal effect;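 as to caspase activation: 0% = DMSO and 100% = 9.2 µM bortezomib caspase signal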
# How it was run: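 TMD8 cells (500/well) in phenol red-free RPMI with 5% FBS were treated with compounds for 8 h at 37C, 5% CO2. Caspase-Glo 3/7 luminescence was read after 15 min at room temperature and normalised to DMSO (0%) and 9.2 uM bortezomib (100%).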
# [2] = Identifying Small Molecule Inhibitors of Pancreatic Cancer Stem Cells (A2780, Spheroid) (AID 1259357); details: Potency: A2780 spheroid viability; viability (percent of control): at 46.1 µM (top of the series);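 also: compound exposure lasted 48 h before the ATP luminescence read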; also: potency is read from the fitted curve at half-maximal effect
# How it was run: (§1)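 Pre-formed 14-day tumor spheroids or adherent cells dosed and incubated 48 h, 37C, 5% CO2. Viability assessed by CellTiter-Glo.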
# [3] = Identifying Small Molecule Inhibitors of Pancreatic Cancer Stem Cells (SN12C, Spheroid) (AID 1259360); details: Potency: SN12C spheroid viability; series mostly up to 46.1 µM; also: potency is read from the fitted curve at half-maximal effect
# How it was run: as §1
# [4] = Identifying Small Molecule Inhibitors of Pancreatic Cancer Stem Cells (A278, Adherent) (AID 1259361); details: series mostly up to 46.1 µM; also: nearly all actives have a fitted effect of over 35% in size;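 as to viability (% of control): 100% = DMSO-treated cells and 0% = cell-free media-only wells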
# How it was run: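 Monolayer and spheroid cultures are compared. Spheroids form over 14 days in stem cell medium on hydrogel-coated low-attachment plates, then are exposed to compound for 48 h before CellTiter-Glo luminescence.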
# [5] = Identifying Small Molecule Inhibitors of Pancreatic Cancer Stem Cells (Panc1, Adherent) (AID 1259362); details: Potency: viability unless noted; viability, % of control: at 46.1 µM (top of the series) unless noted;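 also: compound exposure lasted 48 h before the viability read; plate controls were DMSO-treated cells for no effect and cell-free media wells for full effect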
# How it was run: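 Luminescent ATP readout (CellTiter-Glo) quantifies surviving cells after a 48 h drug incubation. Normalization uses DMSO wells as no inhibition and media-only wells as full inhibition; bortezomib served as positive control.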
# [6] = P-glycoprotein substrates identified in KB-8-5-11 adenocarcinoma cell line, qHTS therapeutic library screen (AID 1346987); details: KB-8-5-11 (P-gp overexpressing) viability, CellTiter-Glo, 72 h; series mostly up to 44.5 µM; also: nearly all actives have a fitted effect of over 65% in size; also: potency is read from the fitted curve at half-maximal effect; as to activity change, negative = cytotoxicity: % is scaled to controls: 0 for no effect and ±100 for the full control effect
# How it was run: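 KB-8-5-11: colchicine-selected sub-line of KB-3-1 over-expressing P-gp; assay medium lacked colchicine. 72 h drug exposure at 37 degree C, CellTiter-Glo.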
# [7] = Cell Proliferation Assay against the TMD8 Cell Line (Caspase readout at 16 hrs) (AID 651712); details: TMD8 lymphoma cells, caspase activation luminescence; caspase activation: at 46.1 µM (top of the series); also: potency is read from the fitted curve at half-maximal effect
# How it was run: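 TMD8 cells in RPMI with 5% FBS were treated with compound for 16 h at 37 C, then caspase 3/7 activation was read by Caspase-Glo luminescence. Percent activity was scaled to DMSO (0%) and 9.2 uM bortezomib final (100%).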
# [8] = qHTS of pediatric cancer cell lines to identify multiple opportunities for drug repurposing: Primary screen for BT-12 cells (AID 1347101); details: BT-12 viability, CellTiter-Glo luminescence, 48 h; series mostly up to 57.3 µM; also: potency is read from the fitted curve at half-maximal effect; nearly all actives have a fitted effect of over 25% in size
# How it was run: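 Cells (500-1,000/well) rested 5 h, then received compounds for 48 h; metabolically active cells were measured by CellTiter-Glo luminescence. Final concentrations spanned up to 46 µM (MIPE, 11-point) or 0.59 nM-46 µM (NPC, 8-point) in primary screens, 11-point in follow-ups.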
# [9] = qHTS of pediatric cancer cell lines to identify multiple opportunities for drug repurposing: Primary screen for Rh18 cells (AID 1347102); details: Rh18 rhabdomyosarcoma viability, CellTiter-Glo luminescence, 48 h; series mostly up to 46 µM; also: potency is read from the fitted curve at half-maximal effect; nearly all actives have a fitted effect of over 65% in size
# How it was run: (§2)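 Viability after 48 h compound treatment at 37C, 500-1,000 cells/well, read as ATP luminescence with CellTiter-Glo. Primary screens used 11-point (MIPE, 0.78 nM-46 µM) or 8-point (NPC, 0.59 nM-46 µM) final concentrations; follow-up screens used 11-point dilutions.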
# [10] = qHTS of pediatric cancer cell lines to identify multiple opportunities for drug repurposing: Primary screen for Rh30 cells (AID 1347107); details: Rh30 rhabdomyosarcoma viability, CellTiter-Glo luminescence, 48 h; series mostly up to 46 µM; also: potency is read from the fitted curve at half-maximal effect; nearly all actives have a fitted effect of over 75% in size
# How it was run: as §2
# [11] = qHTS of pediatric cancer cell lines to identify multiple opportunities for drug repurposing: Primary screen for Rh41 cells (AID 1347108); details: Rh41 rhabdomyosarcoma viability, CellTiter-Glo luminescence, 48 h; series mostly up to 46 µM; also: potency is read from the fitted curve at half-maximal effect; nearly all actives have a fitted effect of over 70% in size
# How it was run: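 Quantitative HTS format: each compound titrated (MIPE 11 points from 0.78 nM, NPC 8 points from 0.59 nM) onto cells plated 5 hours earlier. After 48 h at 37 degrees C, CellTiter-Glo luminescence was recorded.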
# [12] = Quantitative High-Throughput drug screen in 47 multiple myeloma cell lines against the NCATS MIPE library collection: KMS20_JCRB cell viability assay (AID 1918973); details: CellTiter-Glo ATP, 48 h; viability (% of DMSO): at 45.8 µM (top of the series); also: potency is read from the fitted curve at half-maximal effect; nearly all actives have a fitted effect of over 45% in size
# How it was run: (§3)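 Luminescent ATP measurement with CellTiter-Glo gives viability, scaled between DMSO-only wells (100%) and media-only wells (0%). Cells, 500 per well, faced library compounds for 48 hours at 37C.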
# [13] = Quantitative High-Throughput drug screen in 47 multiple myeloma cell lines against the NCATS MIPE library collection: KMS21BM_JCRB cell viability assay (AID 1918974); details: ATP luminescence, 48 h; viability: at 45.8 µM (top of the series); also: potency is read from the fitted curve at half-maximal effect
# How it was run: as §3
# [14] = Quantitative High-Throughput drug screen in 47 multiple myeloma cell lines against the NCATS MIPE library collection: MOLP8_DSMZ cell viability assay (AID 1918977); details: MOLP8 myeloma viability, CellTiter-Glo ATP luminescence, 48 h; viability (% of control): at 45.8 µM (top of the series); also: potency is read from the fitted curve at half-maximal effect; nearly all actives have a fitted effect of over 45% in size
# How it was run: (§4)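 Viability after 48 h drug exposure was measured as ATP-dependent luminescence. Cells, 500 per well, sat at 37 °C under 5% CO2; DMSO wells set 100%, media-only wells 0%.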
# [15] = Quantitative High-Throughput drug screen in 47 multiple myeloma cell lines against the NCATS MIPE library collection: L363_DSMZ cell viability assay (AID 1918984); details: L363 myeloma viability, CellTiter-Glo ATP luminescence, 48 h; viability (% of control): at 45.8 µM (top of the series); also: nearly all actives have a fitted effect of over 40% in size; also: potency is read from the fitted curve at half-maximal effect
# How it was run: as §4
# CRL-7250 = normal cell line; experiment: Cytotoxic Profiling of Annotated Libraries Using Quantitative High-Throughput Screening (AID 1296008); details: Five cell lines viability, CellTiter-Glo ATP luminescence, 48-72 h; max response: stronger effect = lower value; also: nearly all actives have a fitted effect of over 60% in size; also: potency is read from the fitted curve at half-maximal effect; as to max response: % is scaled to controls: 0 for no effect and ±100 for the full control effect
# How it was run: (§5)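 Cells exposed to compounds for 48 or 72 hr at 37 degrees Celsius. Viability read as ATP-coupled luminescence with CellTiter-Glo after 10 min at room temperature.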
# HEK293 = experiment: as above; details: Five cell lines viability, CellTiter-Glo ATP luminescence, 48-72 h; max response: stronger effect = lower value
# How it was run: as §5
# [16] = Quantitative High-Throughput drug screen in 47 multiple myeloma cell lines against the NCATS MIPE library collection: JIM1_ECACC cell viability assay (AID 1918964); details: JIM1 myeloma viability, CellTiter-Glo ATP luminescence, 48 h; series mostly up to 45.8 µM
# How it was run: as §3
# [17] = Quantitative High-Throughput drug screen in 47 multiple myeloma cell lines against the NCATS MIPE library collection: LP1_DSMZ cell viability assay (AID 1918982); details: LP1 myeloma viability, CellTiter-Glo ATP luminescence, 48 h; series mostly up to 45.8 µM; also: potency is read from the fitted curve at half-maximal effect; nearly all actives have a fitted effect of over 35% in size
# How it was run: as §4
# Tags tell the direction and shape of the fitted curve.
smiles,measurement,setting,value
CN([C@@H](Cc1ccc(OS(=O)(=O)c2cccc3cnccc23)cc1)C(=O)N1CCN(c2ccccc2)CC1)S(=O)(=O)c1cccc2cnccc12,Potency,[1],inactive
same,viability (percent of control),[2],inconclusive: 88.6%
same,Potency,[3],inactive
same,IC50 (viability decrease),[4],inactive
same,Potency,[5],inactive
same,"activity change, negative = cytotoxicity",[6],inactive: -4.44% [at 5.11 µM]
CCCCCCCCCCCCCCCCCCOP(=O)([O-])OC1CC[N+](C)(C)CC1,Potency,[2],inactive
same,"viability, % of control",[5],inconclusive: 107% [at 29.8 µM]
CC(C)c1onc(-c2c(Cl)cccc2Cl)c1COc1ccc(/C=C/c2cccc(C(=O)O)c2)c(Cl)c1,Potency,[7],"inconclusive: 33.2 µM [activator, single point]"
same,Potency,[2],"inconclusive: 20.9 µM [cytotoxic, single point]"
same,Potency,[3],"inconclusive: 26.4 µM [cytotoxic, partial curve, poor fit]"
same,IC50 (viability decrease),[4],"inconclusive: 20.9 µM [cytotoxic, single point]"
COc1cc2ncnc(Nc3ccc(F)c(Cl)c3)c2cc1OCCCN1CCOCC1,Potency,[7],"inconclusive: 29.6 µM [activator, single point]"
same,Potency,[6],"inconclusive: 12.1 µM [inhibitor, partial curve, poor fit] and inconclusive: 18.4 µM [inhibitor, partial curve] and inconclusive: 29.1 µM [inhibitor, single point]"
same,Potency,[8],"active: 39.5 µM and inconclusive: 21.9 µM [cytotoxic, single point]"
same,Potency,[9],"active: 34 µM and inconclusive: 23.7 µM [cytotoxic, single point]"
same,Potency,[10],"inconclusive: 34 µM [cytotoxic, partial curve]"
same,Potency,[11],"inconclusive: 33.5 µM [cytotoxic, single point]"
same,Potency,[12],active: 3.4 µM
same,Potency,[13],"inconclusive: 76.2 µM [rising, partial curve, poor fit]"
same,Potency,[14],active: 48.1 µM
same,Potency,[15],active: 8.55 µM
same,Potency,CRL-7250,"inconclusive: 38.2 µM [inhibitor, partial curve] and inconclusive: 33.5 µM [inhibitor, single point] and inconclusive: 29.1 µM [inhibitor, partial curve, poor fit]"
same,Potency,HEK293,"inconclusive: 23.1 µM [inhibitor, single point]"
CN(C)CC(C)(C)CNc1nn2c(-c3ccccc3)nnc2cc1C1CCC1,Potency,[6],"inconclusive: 29.1 µM [inhibitor, single point]"
same,Potency,[8],"inconclusive: 1.37 µM [cytotoxic, full curve]"
same,Potency,[9],"inconclusive: 833 nM [cytotoxic, partial curve, poor fit]"
same,Potency,[11],"inconclusive: 3.72 µM [cytotoxic, partial curve]"
same,Potency,[12],"inconclusive: 0.469 µM [cytotoxic, full curve, poor fit]"
same,Potency,[13],"inconclusive: 1.48 µM [cytotoxic, full curve, poor fit]"
same,Potency,[14],"inconclusive: 4.69 µM [cytotoxic, partial curve, poor fit]"
same,Potency,[15],"inconclusive: 7.43 µM [cytotoxic, partial curve]"
same,max response,CRL-7250,inactive: -13.8%
same,outcome,CRL-7250,inactive
same,Potency,HEK293,active: 4.18 µM
same,outcome,HEK293,inactive
O=C(CCCN1CCN(c2ccccn2)CC1)c1ccc(F)cc1,Potency,[6],"inconclusive: 29.1 µM [inhibitor, single point]"
same,Potency,[8],"inconclusive: 30.9 µM [cytotoxic, partial curve]"
same,max response,CRL-7250,inactive: -29%
same,outcome,CRL-7250,inactive
CN1CCN(C(=O)c2cc3cc(Cl)ccc3[nH]2)CC1,max response,CRL-7250,inactive: -2.46%
same,max response,HEK293,inactive: -8.86%
CCOC(CN1CCN(CC(C)C(=O)c2ccccc2)CC1)c1ccccc1 (stereo not given),Potency,[6],"inconclusive: 16.4 µM [inhibitor, single point]"
same,Potency,CRL-7250,"inconclusive: 14.6 µM [inhibitor, single point]"
same,Potency,HEK293,"inconclusive: 29.1 µM [inhibitor, single point]"
same,max response,HEK293,inactive: -4.15%
Cc1cnc(-c2cnc(NCCNc3ccc(C#N)cn3)nc2-c2ccc(Cl)cc2Cl)[nH]1,Potency,[7],"inconclusive: 29.6 µM [activator, single point]"
same,Potency,[1],"inconclusive: 33.2 µM [activator, single point]"
same,Potency,[2],inactive
same,IC50 (viability decrease),[4],"inconclusive: 0.0074 µM [rising, full curve]"
same,Potency,[8],"inconclusive: 43.2 µM [cytotoxic, partial curve, poor fit]"
same,Potency,[9],"inconclusive: 37200 nM [cytotoxic, single point]"
same,Potency,[10],"inconclusive: 1.87 µM [cytotoxic, partial curve, poor fit]"
same,Potency,[11],"inconclusive: 4.69 µM [cytotoxic, full curve]"
same,Potency,[16],inactive
same,Potency,[12],"inconclusive: 5.26 µM [cytotoxic, full curve, poor fit]"
same,Potency,[13],"inconclusive: 0.418 µM [rising, full curve, poor fit]"
same,Potency,[14],"inconclusive: 0.0053 µM [rising, full curve]"
same,Potency,[17],"inconclusive: 13.2 µM [cytotoxic, partial curve]"
same,Potency,[15],inactive
same,Potency,CRL-7250,"inconclusive: 37.2 µM [inhibitor, single point] and inconclusive: 29.1 µM [inhibitor, single point]"
O=C(O)c1ccc(-c2c[nH]c3ccc(-c4ccccc4)cc23)cc1C1CCCC1,Potency,[7],inactive
same,Potency,[2],inactive
same,Potency,[3],inactive
same,IC50 (viability decrease),[4],"inconclusive: 14.8 µM [cytotoxic, partial curve, poor fit]"
